According to PubChem BioAssay AID1508624 (National Center for Advancing Translational Sciences (NCATS), 2021):
Among all 48,000 compounds or so, about 120 (0.25%) were called active. Inconclusive results (about 4%) are left out. The call rests on the fitted dose curve; in most records, active means well fitted activation curve with a large enough effect; inconclusive means small, poorly fitted or top-dose-only effect, or another doubt; inactive means no such curve, though single readings can be large or run the other way. The list shows a part of the results.

experiment: Primary qHTS for Identification of Small Molecule Activators of Huntingtin-Antisense Promoter Activity; conditions: HEK293 HTT-AS promoter firefly luciferase reporter, 24 h; series mostly up to 57.5 µM; activity change, positive = activation: at the top concentration; further: nearly all actives have a fitted effect of over 55% in size
Summary of the method: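 Firefly luciferase signal from promoter-reporter HEK293 cells was scaled between vehicle (0%) and zero RLU (-100%). Compounds were tested at final concentrations of up to 57.5 uM over 24 h at 37 degrees C. PTC124 at 50 uM final served as control inhibitor.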

Activity change, positive = activation, inactive:
Cc1cccc(C)c1OCC(=O)N(Cc1ccco1)Cc1ccco1 -13.4%, C=Cc1ccc(Cn2c(C)c(CNCCc3ccc(OCC)cc3)c(C(=O)O)c2C)cc1 -28.6%, CCn1cc(C(=O)N2CCN(c3cccc(Cl)c3)CC2)c(=O)c2cc(S(=O)(=O)N3CCC(C)CC3)ccc21 -15.8%, Cc1ccc2c(=O)cc(CSc3ncn[nH]3)[nH]c2c1C -2.62%, CCOC(=O)c1c(C)[nH]c(C)c1S(=O)(=O)N1CCC(C(=O)N2CCN(c3ccc(F)cc3)CC2)CC1 -12.9%, Cc1ccc2nc(NC(=O)c3ccc(S(=O)(=O)N4CCC(C)CC4)cc3)sc2c1 -12.5%, Cc1ccccc1CN1C(=O)c2ccccc2Sc2ccc(C(=O)NCCc3ccccc3)cc21 -12.1%, COc1cc(C(=O)NCCc2sc(-c3cccc(F)c3)nc2C)cc(OC)c1OC -18.1%, Cc1nc2cc(-c3cccc(F)c3)nn2c(C)c1CCC(=O)NC(C)c1ccccc1 (centres undefined) -65.2%, O=C(Nc1ccccc1Br)c1cc(CN2CCCC2)on1 16.6%, COc1cc2c(cc1NC(=O)c1ccccc1C)n(C)c(=O)n2C 5.91%, CCc1ccc(CNC(=O)c2ccc(-c3nc(CSc4ccc(C)cc4)c(C)o3)cc2)cc1 0%, O=C(CSc1oc(-c2ccc(F)cc2)nc1S(=O)(=O)c1ccccc1)NC1CCCCC1 -6.6%, CCSc1nnc(NC(=O)c2cc(=O)c3cc(C)ccc3o2)s1 5.92% [at 11.5 µM, percent change from vehicle, -100% = no light], COc1cccc(CNC(=O)CCn2cnc3ccccc3c2=O)c1 -4.68%, O=C(CCN1C(=O)c2ccccc2Sc2ncccc21)Nc1ccc(F)cc1 -15.2%, CC(CCc1ccccc1)NC(=O)Cn1ncc2c3ccccc3n(Cc3ccccc3)c2c1=O (centres undefined) -7.97%, CCCCOc1ccccc1C1CC(=O)Nc2cc(C)c(C)cc21 (centres undefined) -30.7%, COc1ccc(-c2nnc(SCC(=O)Nc3c(C)cccc3C)nc2-c2ccc(OC)cc2)cc1 -2.23% [at 11.5 µM, percent change from vehicle, -100% = no light], CC(C)CNc1ncnc2onc(-c3ccc(Cl)cc3)c12 -14.2%, CCOC(=O)c1ccc(NC(=O)c2oc3c(c2C)-c2nn(Cc4ccccc4Cl)cc2CC3)cc1 -21.3%, Cc1cc2oc(C(=O)N(Cc3ccc(N(C)C)cc3)Cc3ccco3)c(C)c2cc1Cl -20.7%, Cc1ccccc1Nc1nc(N)c(C(=O)c2ccccc2Cl)s1 -17.9%, CCCCc1ccc(NC(=O)CSc2nc(=O)[nH]c3c2CCCC3)cc1 -25.2%, CCOc1ccc(S(=O)(=O)N2CCN(Cc3nc4ccc(C)cc4o3)CC2)cc1 -28%, Oc1cc2c(cc1O)C1c3ccc(O)c(O)c3OCC1(O)C2 (centres undefined) -5.24%, O=C(CSc1nc2c([nH]c3ccccc32)c(=O)n1-c1ccccc1F)Nc1cccc(C(F)(F)F)c1 -36.8%, CCOc1ccc(NC(=O)c2cnc3sc(N4CCOCC4)nn3c2=O)cc1 -8.94%, COc1cccc(N2CC(NC(=O)COc3ccccc3F)CC2=O)c1 (centres undefined) -10.2%, COC(=O)CCN(c1ccccc1)C(CNS(=O)(=O)c1ccccc1)c1ccccc1 (centres undefined) -33.6%, CCOc1ccc(CCNC(=O)Cn2c(-c3cccs3)cc3ccccc32)cc1OCC -32.2%, Cc1ccc(C)c(NC(=O)CSc2ccc3nc(-c4ccccc4)cn3n2)c1 8.93%, COc1ccc(Nc2oc(/C=C/c3ccccc3OC)nc2C#N)cc1 17%, O=C(Nc1cccc(C(=O)OCc2cc(=O)n3nc(C4CC4)sc3n2)c1)c1cccc(Cl)c1 11.3%, Cc1ccc(-c2nc(S(=O)(=O)c3ccccc3)c(N3CCN(c4ccccc4)CC3)o2)cc1 -13.9%, Cc1ccc2nc(COc3ccccc3NC(=O)COc3ccc(F)cc3)cc(=O)n2c1 -9.76%, CCc1ccccc1NS(=O)(=O)c1ccc2[nH]cc(C(=O)N(CC(C)C)CC(C)C)c(=O)c2c1 -25.3%, CCc1ccccc1N(CC)C(=O)c1c(C)oc2ncn(C)c(=O)c12 -16.4%, COc1ccc(NC(=O)C2CCN(S(=O)(=O)c3ccc4c(c3)CCCC(=O)N4)CC2)cc1OC -5.99%, O=C(Nc1ccccc1C(=O)OCc1cc(=O)n2c3c(sc2n1)CCCC3)c1ccc(F)cc1 -9.1%, COc1ccc(-c2nc(SCC(=O)Nc3ccc4c(c3)OCCO4)c(-c3ccc(F)cc3)[nH]2)cc1 -19.3%, Cc1cccc(C(C)C)c1NC(=O)Cn1c(=O)oc2cc(S(=O)(=O)N3CCCC3)ccc21 -29.8%, CCc1ccc2nc(N(CCN(CC)CC)C(=O)c3cccs3)sc2c1 7.29%, Oc1ccc(-c2ccc(-c3cc(Nc4cccc(CNC5CC5)c4)n[nH]3)cc2)c(O)c1 -19%, COc1ccc(OC)c(C(=O)CC2(O)C(=O)N(Cc3ccccc3C)c3ccccc32)c1 (centres undefined) -30.3%, CCOC(=O)c1cccc(NC(=O)CCS(=O)(=O)c2ccc3c(c2)CC(=O)N3C)c1 1.63%, Cc1ccc(S(=O)(=O)C2(C(=O)Nc3ccc(Cl)c(C(F)(F)F)c3)CC2)cc1 -15.6%, Cc1ccc(/C=C(\C#N)c2nc(-c3ccc(-c4ccccc4)cc3)cs2)cc1 4.61%, COC(=O)c1ccc(Cl)cc1NC(=O)NCCc1c(C)nn(C)c1C -2.38%, Cc1c(C(=O)N2CCOCC2)oc2c1-c1nn(CC(=O)NCc3cccc(F)c3)cc1CC2 -32.7%, CC(C)c1ccc(NC(=O)Cn2c(=O)n(CC3CCC(C(=O)NCCc4ccccc4)CC3)c(=O)c3ccccc32)cc1 (centres undefined) -10.3%, Cc1ccc(-n2c(=O)c3cccnc3n2CC(=O)Nc2cc(C)cc(C)c2)cc1 -15.8%, COc1ccccc1CNC(=O)Cn1c(=O)nc(-c2ccccc2F)c2cc(Cl)ccc21 8.23%, COc1ccc(-n2ccnc2SCC(=O)Nc2ccc3c(c2)OCO3)cc1 -14.4%, O=C(NCCCCN1CCOCC1)c1cc2ccccc2o1 1.78%, CC(C)(C)C1CCc2c(sc(NC(=O)Cn3nnc(-c4ccccc4Cl)n3)c2C#N)C1 (centres undefined) 0.655%, Cc1cccc(N2CCN(C(=O)CS(=O)(=O)c3cccc4nsnc34)CC2)c1C -7.92%, Cc1ccc(Cl)cc1N1CCN(C(=O)C2CCC(CNS(=O)(=O)c3cccs3)CC2)CC1 (centres undefined) -21.4%, Cc1ccc(CNc2ccc(-c3nc(-c4ccncc4)no3)cc2[N+](=O)[O-])cc1 -11.4%
